This note sets out measurements from the supplement of paper PMC8285479.

Where a name gives a salt, the structure may show the parent alone. ± gives the standard deviation of the averaged measurements. In all, about 1,900 compounds were measured (“normalised cell viability (NPI; 0 = phenylarsine oxide control, 1 = DMSO control)”: median about 1, lowest 2% from about 0.039 on). The list shows a part of the results.

This assay deals with NCI-H1944. Kind of assay: normalised cell viability (NPI; 0 = phenylarsine oxide control, 1 = DMSO control) (fraction of DMSO control); NCI-H1944 is a non-small cell lung cancer line; higher = more viable cells (less compound toxicity). The note with it: 6 days.
Where [1] appears, read: glucocorticoid arm: hydrocortisone 2.75 uM co-treatment, compound 1 µM.
The mark [2] stands for this setting: glucocorticoid arm: hydrocortisone 2.75 uM co-treatment, compound 5 µM.
Where [3] appears, read: glucocorticoid arm: hydrocortisone 2.75 uM pre-treated 2 days and continued, compound 1 µM.
Setting [4] is: glucocorticoid arm: hydrocortisone 2.75 uM pre-treated 2 days and continued, compound 5 µM.
[5] abbreviates: glucocorticoid arm: vehicle, compound 1 µM.
Where [6] appears, read: glucocorticoid arm: vehicle, compound 5 µM.
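Also: CTB read-out in 384-well plates, mean of triplicate wells, normalised per plate against 1 µM phenylarsine oxide and 0.1% DMSO, compounds added 24 h after seeding.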

For `Cc1cc(C)nc(NS(=O)(=O)c2ccc(NC(=S)NC(=O)COc3ccc(Br)cc3Cl)cc2)n1`, the normalised cell viability turned out to be 1.01 ± 0.016 under setting [1]; 1.04 ± 0.015 under setting [2]; 1.02 ± 0.011 under setting [3]; 1.03 ± 0.01 under setting [4]; 1.01 ± 0.01 under setting [5]; 1.01 ± 0.013 under setting [6].
Turning to `C#C[C@]1(O)CC[C@H]2[C@@H]3CCC4=Cc5oncc5C[C@]4(C)[C@H]3CC[C@@]21C` [Danazol], the normalised cell viability reads like this: under setting [1], 0.998 ± 0.001; under setting [2], 1 ± 0.021; under setting [3], 0.991 ± 0.022; under setting [4], 1.01 ± 0.027; under setting [5], 1.007 ± 0.0058; under setting [6], 1.013 ± 0.0058.
Take `CC12CC3CC(C)(C1)CC(N)(C3)C2` [Memantine HCl]: the normalised cell viability by setting is: under setting [1], 1.01 ± 0.011; under setting [2], 1.003 ± 0.0058; under setting [3], 1.03 ± 0.015; under setting [4], 1 ± 0.013; under setting [5], 1.01; under setting [6], 0.993 ± 0.0066.
For `CC12CC3CC(C)(C1)CC(N)(C3)C2` [Memantine hydrochloride], the normalised cell viability by setting is: under setting [1], 1.01 ± 0.011; under setting [2], 1.03 ± 0.038; under setting [3], 1.01 ± 0.01; under setting [4], 1.1 ± 0.082; under setting [5], 0.9993 ± 0.0011; under setting [6], 1.01 ± 0.01.
Take `N#Cc1c(Oc2ccc(F)c(NC(=O)Cc3cccc(C(F)(F)F)c3)c2)ccc2nc(NC(=O)C3CC3)sc12`: the normalised cell viability reads like this: under setting [1], 1.02 ± 0.01; under setting [2], 0.992 ± 0.014; under setting [3], 1.02; under setting [4], 0.999 ± 0.018; under setting [5], 1.01 ± 0.011; under setting [6], 0.9933 ± 0.0083.
Take `CO[C@H]1C[C@@H]2CC[C@@H](C)[C@@](O)(O2)C(=O)C(=O)N2CCCC[C@H]2C(=O)O[C@H]([C@H](C)C[C@@H]2CC[C@@H](OC(=O)C(C)(CO)CO)[C@H](OC)C2)CC(=O)[C@H](C)/C=C(\C)[C@@H](O)[C@@H](OC)C(=O)[C@H](C)C[C@H](C)/C=C/C=C/C=C/1C` [CCI-779; Temsirolimus]: the normalised cell viability is, setting by setting: under setting [1], 0.868 ± 0.026; under setting [2], 0.756 ± 0.029; under setting [3], 0.915 ± 0.021; under setting [4], 0.832 ± 0.036; under setting [5], 0.79 ± 0.015; under setting [6], 0.697 ± 0.045.
Regarding `CO[C@H]1C[C@@H]2CC[C@@H](C)[C@@](O)(O2)C(=O)C(=O)N2CCCC[C@H]2C(=O)O[C@H]([C@H](C)C[C@@H]2CC[C@@H](OC(=O)C(C)(CO)CO)[C@H](OC)C2)CC(=O)[C@H](C)/C=C(\C)[C@@H](O)[C@@H](OC)C(=O)[C@H](C)C[C@H](C)/C=C/C=C/C=C/1C` [Temsirolimus (Torisel)], the normalised cell viability reads like this: under setting [1], 0.804 ± 0.039; under setting [2], 0.744 ± 0.011; under setting [3], 0.841 ± 0.021; under setting [4], 0.813 ± 0.05; under setting [5], 0.722 ± 0.046; under setting [6], 0.671 ± 0.0097.
`Cc1ccc(C(=O)Nc2cccc(C(F)(F)F)c2)cc1Nc1nc(-c2cccnc2)nc2c1cnn2C`: the normalised cell viability by setting is: under setting [1], 0.991 ± 0.018; under setting [2], 1.04 ± 0.021; under setting [3], 1.06 ± 0.011; under setting [4], 1.06 ± 0.01; under setting [5], 0.783 ± 0.051; under setting [6], 0.833 ± 0.04.
As for `O=C(O)CCCN1CCC(O[C@@H](c2ccc(Cl)cc2)c2ccccn2)CC1` [Bepotastine Besilate], the normalised cell viability amounted to 1.03 ± 0.015 under setting [1]; 1.02 ± 0.011 under setting [2]; 1.03 ± 0.015 under setting [3]; 1.04 ± 0.017 under setting [4]; 1.017 ± 0.0058 under setting [5]; 1 ± 0.018 under setting [6].
As for `CN(C(=O)CCCOc1ccc2[nH]c(=O)ccc2c1)C1CCCCC1` [Cilostamide], the normalised cell viability reads like this: under setting [1], 1 ± 0.014; under setting [2], 1.02 ± 0.025; under setting [3], 0.9953 ± 0.0081; under setting [4], 1.005 ± 0.0071; under setting [5], 1.013 ± 0.0058; under setting [6], 1.03 ± 0.01.
Regarding `O=C(O)c1cc2cc(F)ccc2[nH]1` [5-Fluoroindole-2-carboxylic acid], the normalised cell viability by setting is: under setting [1], 1.003 ± 0.0061; under setting [2], 1.01 ± 0.028; under setting [3], 1.01 ± 0.021; under setting [4], 1.02 ± 0.021; under setting [5], 1.001 ± 0.0083; under setting [6], 1.01 ± 0.01.
Regarding `CN1CCN(c2ccc3nc(-c4c(N)c5c(F)cccc5[nH]c4=O)[nH]c3c2)CC1` [Dovitinib (TKI-258)], the normalised cell viability by setting is: under setting [1], 0.888 ± 0.0072; under setting [2], 0.693 ± 0.049; under setting [3], 0.9123 ± 0.0049; under setting [4], 0.865 ± 0.029; under setting [5], 0.781 ± 0.018; under setting [6], 0.508 ± 0.021.
Regarding `CN1CCN(c2ccc3nc(-c4c(N)c5c(F)cccc5[nH]c4=O)[nH]c3c2)CC1` [Dovitinib Dilactic acid (TKI258 Dilactic acid)], the normalised cell viability is, setting by setting: under setting [1], 0.757 ± 0.01; under setting [2], 0.588 ± 0.0072; under setting [3], 0.9273 ± 0.0055; under setting [4], 0.81 ± 0.042; under setting [5], 0.359 ± 0.0061; under setting [6], 0.19 ± 0.018.
On to `N[C@@H](COP(=O)(O)O)C(=O)O` [O-Phospho-L-serine], for which the normalised cell viability by setting is: under setting [1], 1.013 ± 0.0058; under setting [2], 1.01 ± 0.015; under setting [3], 1.017 ± 0.0058; under setting [4], 1.05 ± 0.093; under setting [5], 0.9993 ± 0.0097; under setting [6], 1.01 ± 0.013.
For `CCCCc1oc2ccccc2c1C(=O)c1cc(I)c(OCCN(CC)CC)c(I)c1` [Amiodarone hydrochloride], the normalised cell viability is, setting by setting: under setting [1], 0.981 ± 0.0085; under setting [2], 0.387 ± 0.12; under setting [3], 1.005 ± 0.0087; under setting [4], 0.892 ± 0.031; under setting [5], 1.01 ± 0.013; under setting [6], 0.151 ± 0.12.
On to `CCc1ccc(OCc2ccccc2C(=O)Nc2ccc3nc(C)cc(N)c3c2)cc1`, for which the normalised cell viability was 1.04 ± 0.011 under setting [1]; 0.00134 ± 0.00041 under setting [2]; 1.05 ± 0.017 under setting [3]; 0.00123 ± 0.00019 under setting [4]; 1.023 ± 0.0058 under setting [5]; 0.00113 ± 0.0006 under setting [6].
In the case of `CN(C)CCc1c[nH]c2ccc(CS(=O)(=O)N3CCCC3)cc12` [Almotriptan Malate], the normalised cell viability came to 1.02 ± 0.017 under setting [1]; 1.03 ± 0.01 under setting [2]; 1.023 ± 0.0058 under setting [3]; 1.023 ± 0.0058 under setting [4]; 1.013 ± 0.0058 under setting [5]; 1.003 ± 0.0058 under setting [6].
With `CN1CCN2c3ccccc3Cc3ccccc3C2C1` (centres undefined) [Mianserin hydrochloride], the normalised cell viability by setting is: under setting [1], 1 ± 0.0095; under setting [2], 0.963 ± 0.015; under setting [3], 0.9977 ± 0.0025; under setting [4], 1.03 ± 0.068; under setting [5], 0.9717 ± 0.0085; under setting [6], 0.982 ± 0.011.
Regarding `CN1CCN2c3ccccc3Cc3ccccc3C2C1` (centres undefined) [Mianserin HCl], the normalised cell viability stood at 1 ± 0.018 under setting [1]; 1.02 ± 0.024 under setting [2]; 0.997 ± 0.015 under setting [3]; 1.02 ± 0.018 under setting [4]; 0.9983 ± 0.0021 under setting [5]; 0.9877 ± 0.0059 under setting [6].
Regarding `CN1CCCN(C(=O)c2cccc(-c3ccc(/C=C4/C(=O)Nc5ccc(Cl)cc54)o3)c2)CC1`, the normalised cell viability reads like this: under setting [1], 0.717 ± 0.032; under setting [2], 0.214 ± 0.24; under setting [3], 0.937 ± 0.021; under setting [4], 0.887 ± 0.059; under setting [5], 0.282 ± 0.017; under setting [6], 0.00113 ± 0.00047.
With `CCCCCCCCOc1ccccc1C(=O)Nc1ccc(C(=O)OCC[N+](C)(CC)CC)cc1` [Otilonium Bromide], the normalised cell viability under setting [1] worked out at 1.03 ± 0.01; the normalised cell viability under setting [2] is 1.03 ± 0.026; the normalised cell viability under setting [3] came to 1.01 ± 0.026; the normalised cell viability under setting [4] was determined as 1.03 ± 0.025; the normalised cell viability under setting [5] amounted to 1.007 ± 0.0058; the normalised cell viability under setting [6] worked out at 1.003 ± 0.0058.
On to `N[C@@H](Cc1ccc(O)c(O)c1)C(=O)O` [L-3,4-Dihydroxyphenylalanine], for which the normalised cell viability is, setting by setting: under setting [1], 0.9983 ± 0.0021; under setting [2], 0.97 ± 0.018; under setting [3], 0.9913 ± 0.0074; under setting [4], 0.971 ± 0.0087; under setting [5], 0.9813 ± 0.0031; under setting [6], 0.9793 ± 0.0055.
As to `O=C1c2c(O)ccc(O)c2C(=O)c2c(NCCNCCO)ccc(NCCNCCO)c21` [Mitoxantrone dihydrochloride], the normalised cell viability was 0.00888 ± 0.0019 under setting [1]; 0.00352 ± 0.00052 under setting [2]; 0.145 ± 0.013 under setting [3]; 0.155 ± 0.0095 under setting [4]; 0.00324 ± 0.00091 under setting [5]; 0.00617 ± 0.003 under setting [6].
As to `O=C1c2c(O)ccc(O)c2C(=O)c2c(NCCNCCO)ccc(NCCNCCO)c21` [Mitoxantrone; Mitoxantrone dihydrochloride], the normalised cell viability reads like this: under setting [1], 0.181 ± 0.0045; under setting [2], 0.00493 ± 0.00072; under setting [3], 0.65 ± 0.012; under setting [4], 0.0166 ± 0.0015; under setting [5], 0.0328 ± 0.004; under setting [6], 0.00403 ± 0.00087.
